# Test results reported in the supplement of paper PMC3334620.
# Whole data set: some 33,000 sequences, median “E-score (-0.5 to 0.5)” near -0.01, cut for the highest 2% near 0.26. This is one part of the list.
# Molecular target: Ste12 (UniProt P13574)
# Test: PBM E-score (8-mer binding enrichment) (E-score (-0.5 to 0.5)); higher = stronger / more preferred TF binding; most listed sequences are background and not binding sites
# Conditions: protein concentration: 200 nM; construct: GST-DNA-binding domain
# In short: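 Full-length yeast transcription factors or their DNA-binding domains, GST-tagged and expressed with PURExpress, were applied at about 100-200 nM to universal all-10-mer Agilent arrays. These arrays had been made double-stranded by primer extension on fresh or once-stripped slides. Detection used fluorescent anti-GST, normalisation used masliner, and E-scores for ungapped eight-base words pooled with reverse complements came from the Universal PBM Analysis Suite.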
row,Sequence,PBM E-score
1,CTATAAGA,0.0602
2,GCCCTTAC,-0.176
3,ACCACCAG,-0.0336
4,ACCTGGGA,0.0779
5,CAGTTTAA,0.131
6,CTGACATC,0.123
7,ATTTCAGC,0.13
8,CTTTTGGC,-0.0551
9,AATGCAAC,0.0238
10,TAATTCGA,0.179
11,ATACTTAA,0.166
12,TACGAGGA,0.0797
13,AATACTTA,0.141
14,CCGCAGTA,-0.0759
15,ACATTAGT,-0.0436
16,GTAAGCAA,-0.0558
17,ACTATAAG,0.00946
18,GAGGTGGC,-0.132
19,GCCCCCAA,-0.0804
20,ACATTGGT,-0.115
21,GGTAGAAC,-0.101
22,ATGTGGGG,-0.0488
23,AGCTGTAG,-0.0286
24,CGACCGCA,-0.0229
25,AATGACTA,-0.0904

row,Sequence,PBM E-score
1,AAGATGAT,-0.0474
2,GACACGAC,0.0724
3,CCTCGCTC,0.0357
4,TGGTTCAA,0.247
5,ACGTGACT,-0.14
6,CCTAGCAA,0.00643
7,AATCGACT,-0.108
8,CAATAGCC,-0.0829
9,CTAGGAGC,-0.17
10,CAAAGAGG,-0.135
11,GATTCATA,0.00383
12,ACAATGCT,-0.122
13,CTGACACC,-0.0815
14,ACGGACCA,-0.109
15,ACATAGAG,-0.0386
16,CAGGAAGA,0.0542
17,ACGTCTGA,-0.144
18,CGTGCCTC,-0.174
19,GAACTGAA,0.221
20,GCACTTAC,-0.118
21,TAAGGACA,0.0544
22,AGTCCGGC,-0.0592
23,ATCATATA,0.15
24,CCACAATC,-0.0492
25,CTCCTATA,-0.217

row,Sequence,PBM E-score
1,GTGCTAAC,-0.0233
2,AATTTACC,0.137
3,CTCCCGTA,-0.224
4,AGCCGAAA,0.15
5,CGCTGACA,0.0883
6,GGCTTGCA,-0.00181
7,TGGATTAA,0.123
8,CTAGTCAC,-0.108
9,CCGGGCTA,-0.208
10,GTAAGCAC,-0.0603
11,TACAAGAA,0.187
12,AACGGTAA,-0.0226
13,ACTCCCGA,-0.281
14,GTAGGGTA,-0.158
15,GAAAGAAA,0.297
16,GCTACTGA,0.0417
17,CAGTGACC,-0.11
18,CCTGCAAA,-0.194
19,AGCTATCA,-0.0659
20,GTCCAGAC,-0.298
21,AGCAACAC,-0.0966
22,GGTCCACC,-0.217
23,CAGGGTAG,-0.114
24,AGTCTACG,-0.171
25,CCGCACAA,-0.00756

row,Sequence,PBM E-score
1,ATGCACCG,-0.132
2,AAAGAATT,0.15
3,CTCGAATA,-0.0948
4,GAGTTGCA,-0.152
5,CTAAGGCA,0.061
6,ACACGCGC,0.0321
7,AATCGTAG,-0.0731
8,CGTCCCAC,0.159
9,AGATTTAA,0.0444
10,AAGGTAGA,0.0315
11,ATACGTGC,0.0112
12,AACTACCC,0.033
13,CACAGGTG,-0.128
14,CTGCCCAA,-0.0559
15,GTTGACAA,0.132
16,CGCTTCCC,0.00746
17,TAGTAGCA,0.119
18,AAAATCTG,0.193
19,AAAGCACC,-0.00596
20,ATCTGTGA,-0.044
21,CGTATGAG,0.0322
22,ATCTCCAG,0.0508
23,GTGGCTCA,-0.205
24,CAACCATG,0.0467
25,AGCTTGAG,-0.164

row,Sequence,PBM E-score
1,CCGCGGCA,0.175
2,GGTTCCTA,-0.177
3,ACAAGAGG,-0.0964
4,CAAGTCAA,-0.117
5,ACAGTCCA,-0.0442
6,TAATGCTA,-0.00558
7,GATGGGCA,-0.0542
8,CATCGATC,-0.149
9,CAGACGCA,0.0344
10,CGGTAACG,-0.141
11,GGCGAGCC,-0.206
12,CGGCCTAA,0.0279
13,CTAGCGAA,-0.222
14,AGATGAAA,0.39
15,CGCCCCGA,0.247
16,AGGTTAAG,-0.0346
17,CCCCAACA,-0.0382
18,CCTGAAGG,-0.184
19,GCACAAAC,-0.0245
20,GATGGGAA,0.0192
21,CAGGCCTA,-0.0237
22,CCTCAGAA,0.0556
23,CACTGATA,0.092
24,ACCTACGA,-0.0389
25,CCAGTCGC,-0.1

row,Sequence,PBM E-score
1,AGTGCCGC,-0.0644
2,ATCGATGA,0.0661
3,CCTCTCCC,0.0198
4,AGAGTTCG,0.0764
5,GTGACGTA,0.00924
6,AGTTCCAG,0.115
7,CGTAAGGA,-0.0644
8,AATTCAAG,0.0152
9,ACTTGGGA,-0.137
10,GCTCAAAA,0.159
11,CTCTATCC,-0.0963
12,CTTGCTCC,-0.112
13,GTCGACTA,-0.0061
14,GGTTCTAC,-0.0498
15,ATACCACC,0.0538
16,CATGCTAG,-0.12
17,CATATGTC,-0.184
18,ATAAGATG,0.224
19,GTATTAGA,0.22
20,GCGGAGCC,-0.102
21,GGCTCACC,-0.244
22,TGCAACAA,0.052
23,ATCGGGCA,-0.0312
24,TCAAACCA,0.278
25,ACCAGCAG,-0.0588

row,Sequence,PBM E-score
1,CACTCTAC,0.0303
2,CGGTGGTC,0.00929
3,ACATTCAT,0.117
4,AGCCAGGA,-0.0688
5,CGTAGTCC,-0.317
6,AAGGTGCA,0.02
7,CTTGTGAA,0.00063
8,AACGTCAA,-0.0262
9,AATATGGT,0.165
10,ATAGGACC,-0.0552
11,AAACGCCA,0.229
12,CTCAAGTC,-0.264
13,AACGGGGC,0.0743
14,CCCTTATA,-0.0231
15,AAGGAAAG,-0.0602
16,CATGCTGC,-0.155
17,CTGATAGA,0.156
18,ATTTTCTC,0.0613
19,AGTAGCCA,-0.212
20,AGATTCGA,0.169
21,AAAGACCT,0.137
22,GATTGATA,0.112
